# In the supplement of paper PMC7826260:
# The other results are listed elsewhere or left out. Each Rep nickase domain was tested in vitro on the same pool of single strands for 1 h at 37 °C with 3 µM enzyme; only the middle of the 90-letter strands is printed. A value is the log2 ratio of uncut reads to the pool without enzyme; more negative means more cut, near 0 not cut, and no call is made. The scaling is to total reads, so uncut sequences can rise above 0 when many others are cut.
# Assays:
# Experiment in all cases: uncleaved DNA left, log2 of reads against the no-enzyme library (log2 ratio); higher = less cleavage (more negative = more Rep cleavage of the k-mer); sequences stand for … in CTCGTCCG…ACCGGAGA
# [1] = tested on: T1, Rep nickase domain of Muscovy duck circovirus
# T1 sequence (Rep 1-111, printed without the tag): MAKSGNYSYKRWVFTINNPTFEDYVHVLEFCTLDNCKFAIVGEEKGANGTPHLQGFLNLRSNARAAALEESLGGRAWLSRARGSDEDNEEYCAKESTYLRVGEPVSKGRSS
# Procedure: (§1)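 A pool of 90-nt single-stranded DNAs with seven random bases just before the constant AC of the nick site (name = the seven bases) was cut by 3 µM recombinant His6-SUMO-tagged Rep nickase domain (300 nM DNA, 50 mM HEPES pH 8.0, 50 mM NaCl, 1 mM MnCl2, 1 h, 37 °C, three replicates). Uncut DNA was amplified and sequenced.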
# [2] = tested on: T2, Rep nickase domain of banana bunchy top virus
# T2 sequence (Rep 1-94, printed without the tag): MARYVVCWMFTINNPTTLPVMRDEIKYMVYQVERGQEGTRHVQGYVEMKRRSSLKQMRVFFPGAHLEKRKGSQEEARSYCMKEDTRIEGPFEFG
# Procedure: as §1
# [3] = tested on: T3, Rep nickase domain of cabbage leaf curl virus
# T3 sequence (Rep 1-116, printed without the tag): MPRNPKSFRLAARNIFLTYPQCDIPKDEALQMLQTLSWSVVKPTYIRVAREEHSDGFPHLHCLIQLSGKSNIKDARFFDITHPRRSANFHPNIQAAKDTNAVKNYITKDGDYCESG
# Procedure: as §1
# [4] = tested on: T4, Rep nickase domain of chickpea chlorotic dwarf virus
# T4 sequence (Rep 1-124, printed without the tag): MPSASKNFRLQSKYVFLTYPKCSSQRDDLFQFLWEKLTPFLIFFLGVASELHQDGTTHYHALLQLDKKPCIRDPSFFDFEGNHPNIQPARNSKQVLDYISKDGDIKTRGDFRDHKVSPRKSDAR
# Procedure: as §1
# [5] = tested on: T5, Rep nickase domain of faba bean necrotic yellows virus
# T5 sequence (Rep 1-98, printed without the tag): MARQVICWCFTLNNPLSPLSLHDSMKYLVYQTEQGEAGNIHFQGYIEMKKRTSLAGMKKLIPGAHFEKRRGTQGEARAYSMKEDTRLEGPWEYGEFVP
# Procedure: as §1
# [6] = tested on: T6, Rep nickase domain of maize striate mosaic virus
# T6 sequence (Rep 1-117, printed without the tag): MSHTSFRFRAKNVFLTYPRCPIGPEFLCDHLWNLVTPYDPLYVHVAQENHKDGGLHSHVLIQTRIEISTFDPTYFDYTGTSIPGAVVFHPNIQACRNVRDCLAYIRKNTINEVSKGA
# Procedure: as §1
# [7] = tested on: T7, Rep nickase domain of porcine circovirus 2
# T7 sequence (Rep 2-116, printed without the tag): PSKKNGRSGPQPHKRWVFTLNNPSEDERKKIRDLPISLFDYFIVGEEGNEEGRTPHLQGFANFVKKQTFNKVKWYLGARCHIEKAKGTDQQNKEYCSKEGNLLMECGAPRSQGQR
# Procedure: as §1
# [8] = tested on: T8, Rep nickase domain of tomato yellow leaf curl virus
# T8 sequence (Rep 1-136, printed without the tag): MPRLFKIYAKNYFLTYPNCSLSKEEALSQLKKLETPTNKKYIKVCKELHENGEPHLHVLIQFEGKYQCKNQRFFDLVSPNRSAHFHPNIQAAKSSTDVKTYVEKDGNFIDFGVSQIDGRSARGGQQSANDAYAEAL
# Procedure: as §1
# [9] = tested on: T9, Rep nickase domain of wheat dwarf virus
# T9 sequence (Rep 1-137, printed without the tag): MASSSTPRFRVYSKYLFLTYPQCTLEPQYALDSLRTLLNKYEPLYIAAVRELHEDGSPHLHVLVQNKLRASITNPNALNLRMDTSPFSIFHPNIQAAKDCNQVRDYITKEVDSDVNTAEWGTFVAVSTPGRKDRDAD
# Procedure: as §1
Sequence,uncleaved DNA left (log2) [1],uncleaved DNA left (log2) [2],uncleaved DNA left (log2) [3],uncleaved DNA left (log2) [4],uncleaved DNA left (log2) [5],uncleaved DNA left (log2) [6],uncleaved DNA left (log2) [7],uncleaved DNA left (log2) [8],uncleaved DNA left (log2) [9]
TCAGGGC,0.0611,0.048,0.16,0.433,0.0785,-0.151,0.011,0.0346,-0.000756
TCCTGAC,-0.00495,0.0371,0.0878,-0.242,0.0145,-0.0251,0.0272,-0.0656,0.00524
GTTCGCT,-0.00802,-0.0544,0.249,0.457,0.0334,0.523,0.104,0.137,-0.0129
ACCCGTA,0.135,0.0658,-0.0783,-0.584,0.198,-0.719,-0.00769,0.0715,0.014
GGAGACA,0.203,0.245,0.998,2.27,0.06,2.34,0.37,0.053,0.305
TGGGCAC,-0.0739,0.104,0.828,1.87,-0.0898,2.15,0.162,0.0597,0.0664
ACGGTCG,0.0387,0.0566,-0.628,0.186,0.129,-0.475,0.101,0.141,-0.118
GTAACTC,0.123,0.101,0.29,0.76,0.0305,1.55,0.223,0.152,0.166
CCGTCGA,-0.0553,-0.219,-0.648,-0.693,-0.0668,-0.947,-0.129,-0.107,-0.254
CTTCGCC,-0.0263,-0.0867,-0.136,-0.415,0.00685,-0.805,-0.11,-0.11,-0.152
TCGTTAG,0.0339,-0.035,-0.186,-0.0384,0.0445,-0.839,0.0722,0.0465,0.0234
GGCCCGG,0.0671,0.0473,0.518,1.4,0.0738,1.94,0.0943,-0.0246,0.0255
AGCGTTG,-0.0984,0.0409,0.0159,0.611,-0.0188,1.56,-0.0789,0.0182,0.0762
ACAGACG,0.152,0.173,-0.457,0.316,0.0139,-0.352,0.221,0.169,0.0999
GTGACAT,0.132,0.221,0.953,2.19,0.0316,2.39,0.296,0.0708,0.242
CCACAGG,0.0429,0.191,0.226,0.775,0.00264,0.196,0.151,0.106,0.14
ATAAACC,-0.0605,-0.0161,-0.134,-0.949,-0.0353,-0.809,-0.331,-0.0524,-0.0134
AGCAGGT,0.0754,0.0624,0.301,0.695,-0.0324,1.1,-0.0847,-0.0744,-0.0297
TGAATTG,-0.141,-0.0403,-0.269,-0.347,-0.0281,-0.729,0.0978,-0.106,-0.124
CTGATTT,-0.0867,-0.316,-0.214,-2.13,-0.237,-0.594,-0.676,-0.173,-0.221

Sequence,uncleaved DNA left (log2) [1],uncleaved DNA left (log2) [2],uncleaved DNA left (log2) [3],uncleaved DNA left (log2) [4],uncleaved DNA left (log2) [5],uncleaved DNA left (log2) [6],uncleaved DNA left (log2) [7],uncleaved DNA left (log2) [8],uncleaved DNA left (log2) [9]
TGAACGG,0.11,0.123,0.565,1.66,0.0607,2.11,0.199,-0.0251,0.174
TGCACCA,-0.0331,0.121,0.194,-0.508,0.0426,-0.156,-0.187,0.094,0.133
TGCCAAC,-0.0706,-0.0509,0.291,0.118,-0.0901,1,-0.0849,-0.147,-0.00899
GATGTAC,0.0214,-0.0804,0.172,0.513,0.0196,0.84,0.0315,-0.00545,-0.00707
GGCCGAG,0.107,0.2,0.991,2.17,0.0762,2.31,0.262,0.179,0.22
CAGCCAA,-0.18,-0.186,-0.19,-0.63,-0.119,-0.763,-0.204,-0.117,-0.148
CAATTCC,0.0154,0.0758,-2.4,-2.47,-0.0319,-0.896,-0.134,0.0445,-0.384
AGGGAGA,0.137,0.0702,0.39,1.33,0.228,1.38,0.205,0.111,0.116
AACACAT,0.0383,0.0716,0.00514,-1.82,-0.0393,-0.155,-0.199,-0.0249,0.145
AGGCCTG,0.0537,0.00297,0.263,0.893,-0.0918,1.7,0.248,-0.0677,0.00566
AGTGGGC,-0.0146,0.14,0.312,0.733,0.0324,0.34,0.267,-0.0186,0.108
GACGGGC,0.0741,-0.00191,0.428,1,0.0249,0.982,0.151,0.0217,0.0604
ACGGTAA,-0.00223,0.00399,0.0235,0.106,0.114,-0.0516,0.131,-0.0187,0.0833
CCGTCTC,-0.09,-0.129,-0.0209,-0.26,-0.0891,0.126,-0.397,-0.124,-0.288
GTTGAGT,0.184,0.0818,0.158,0.468,-0.0107,0.159,0.156,0.215,0.022
ATTACCC,-0.3,-0.121,-0.148,-2.17,-0.0813,-0.422,-1.37,-0.0668,-0.111
ATTAACT,-0.838,-0.365,-0.583,-3.22,0.0811,-0.922,-3.25,-0.0639,-0.0683
GGCACAT,0.0265,0.159,0.923,2.13,0.113,2.36,0.25,0.00967,0.195
AATTTAA,-0.615,-0.187,-0.126,-0.696,-0.0548,-0.794,-0.864,-0.124,-0.0679
GTATTAC,-1.51,0.0332,-0.388,0.239,-0.111,1.6,-2.98,0.169,-0.308

Sequence,uncleaved DNA left (log2) [1],uncleaved DNA left (log2) [2],uncleaved DNA left (log2) [3],uncleaved DNA left (log2) [4],uncleaved DNA left (log2) [5],uncleaved DNA left (log2) [6],uncleaved DNA left (log2) [7],uncleaved DNA left (log2) [8],uncleaved DNA left (log2) [9]
AACTAAG,0.0162,0.0111,-0.699,-0.357,0.191,-1.12,0.193,0.123,-0.0603
GGCCCTA,-0.0614,0.123,0.578,1.21,0.145,1.83,-0.0164,0.147,0.243
GTTTAAT,-0.269,0.00937,0.285,0.734,-0.127,1.65,-0.724,-0.0397,-0.0888
GGGACAT,-0.0351,0.0454,0.929,2.12,-0.166,2.39,0.135,-0.664,0.164
TTCGTGA,0.126,0.0908,0.216,0.0443,0.0889,-0.379,0.192,0.171,0.141
ACAACAG,0.133,0.0249,-0.541,-0.358,0.11,-0.811,0.181,0.147,0.0394
ATCTGTG,0.0212,0.156,-0.645,-0.00982,0.145,-0.83,0.239,0.0937,0.0147
GACCATT,-0.18,-0.212,0.432,-0.486,-0.107,1.24,-0.741,0.0117,0.0353
CCTATAT,-0.0726,-0.0622,0.137,-0.801,-0.00637,-0.744,-0.342,-0.0369,-0.0972
TTCCTAG,0.0178,-0.0232,-0.604,-0.532,-0.163,-1.12,-0.056,-0.062,-0.156
GATAGGC,0.0451,0.0199,0.334,0.82,0.0255,0.315,0.189,0.00161,-0.0192
ACTTATC,-0.083,-0.0567,0.0558,0.206,-0.123,-0.61,0.103,0.0538,0.0547
TTTCGCA,-0.139,-0.145,-0.435,-1.18,-0.0965,-1.03,-0.272,-0.123,-0.0689
AGTGTCT,0.00528,-0.0255,0.104,-0.24,0.0522,0.658,-3.03,-0.0149,0.0517
ACGAAGT,0.0113,0.0136,-0.111,-0.344,0.0178,-0.802,-0.0291,0.0638,-0.0136
TGGCATC,0.0418,0.0502,0.7,1.47,0.0515,1.84,0.156,0.156,0.302
GATACGA,0.0794,0.11,0.071,0.362,0.0667,-0.0413,0.173,-0.0427,0.0914
GCTGTAA,0.031,0.0991,0.133,0.451,-0.059,0.843,0.109,0.0552,-0.0639
ACACTCA,-0.134,-0.0736,-0.435,-1.55,-0.0215,-0.907,-0.0772,-0.159,-0.0775
ATATTTG,0.0492,-0.0374,-0.74,-0.669,0.0847,-1.24,0.0351,-0.067,-0.0637
